According to PubChem BioAssay AID504333 (National Center for Advancing Translational Sciences (NCATS), 2011):
The campaign covered roughly 360,000 compounds. About 16,000 (4.4%) were called active. This list was built around the results that the source calls inconclusive (neither active nor inactive); the mix of calls is not that of the screen. Calls come from the whole dose curve; as a rule, active = well fitted inhibition curve with a large enough effect; inconclusive = small, poorly fitted or top-dose-only effect; inactive = no such curve, though single readings can be large or run the other way. Where the call is inconclusive, the potency comes from a doubtful curve fit.

Target: Bromodomain adjacent to zinc finger domain protein 2B (Homo sapiens) (UniProt Q9UIF8)
Sequence of UniProt Q9UIF8 (Q9UIF8 whole entry, looked up, the tested form may be a part): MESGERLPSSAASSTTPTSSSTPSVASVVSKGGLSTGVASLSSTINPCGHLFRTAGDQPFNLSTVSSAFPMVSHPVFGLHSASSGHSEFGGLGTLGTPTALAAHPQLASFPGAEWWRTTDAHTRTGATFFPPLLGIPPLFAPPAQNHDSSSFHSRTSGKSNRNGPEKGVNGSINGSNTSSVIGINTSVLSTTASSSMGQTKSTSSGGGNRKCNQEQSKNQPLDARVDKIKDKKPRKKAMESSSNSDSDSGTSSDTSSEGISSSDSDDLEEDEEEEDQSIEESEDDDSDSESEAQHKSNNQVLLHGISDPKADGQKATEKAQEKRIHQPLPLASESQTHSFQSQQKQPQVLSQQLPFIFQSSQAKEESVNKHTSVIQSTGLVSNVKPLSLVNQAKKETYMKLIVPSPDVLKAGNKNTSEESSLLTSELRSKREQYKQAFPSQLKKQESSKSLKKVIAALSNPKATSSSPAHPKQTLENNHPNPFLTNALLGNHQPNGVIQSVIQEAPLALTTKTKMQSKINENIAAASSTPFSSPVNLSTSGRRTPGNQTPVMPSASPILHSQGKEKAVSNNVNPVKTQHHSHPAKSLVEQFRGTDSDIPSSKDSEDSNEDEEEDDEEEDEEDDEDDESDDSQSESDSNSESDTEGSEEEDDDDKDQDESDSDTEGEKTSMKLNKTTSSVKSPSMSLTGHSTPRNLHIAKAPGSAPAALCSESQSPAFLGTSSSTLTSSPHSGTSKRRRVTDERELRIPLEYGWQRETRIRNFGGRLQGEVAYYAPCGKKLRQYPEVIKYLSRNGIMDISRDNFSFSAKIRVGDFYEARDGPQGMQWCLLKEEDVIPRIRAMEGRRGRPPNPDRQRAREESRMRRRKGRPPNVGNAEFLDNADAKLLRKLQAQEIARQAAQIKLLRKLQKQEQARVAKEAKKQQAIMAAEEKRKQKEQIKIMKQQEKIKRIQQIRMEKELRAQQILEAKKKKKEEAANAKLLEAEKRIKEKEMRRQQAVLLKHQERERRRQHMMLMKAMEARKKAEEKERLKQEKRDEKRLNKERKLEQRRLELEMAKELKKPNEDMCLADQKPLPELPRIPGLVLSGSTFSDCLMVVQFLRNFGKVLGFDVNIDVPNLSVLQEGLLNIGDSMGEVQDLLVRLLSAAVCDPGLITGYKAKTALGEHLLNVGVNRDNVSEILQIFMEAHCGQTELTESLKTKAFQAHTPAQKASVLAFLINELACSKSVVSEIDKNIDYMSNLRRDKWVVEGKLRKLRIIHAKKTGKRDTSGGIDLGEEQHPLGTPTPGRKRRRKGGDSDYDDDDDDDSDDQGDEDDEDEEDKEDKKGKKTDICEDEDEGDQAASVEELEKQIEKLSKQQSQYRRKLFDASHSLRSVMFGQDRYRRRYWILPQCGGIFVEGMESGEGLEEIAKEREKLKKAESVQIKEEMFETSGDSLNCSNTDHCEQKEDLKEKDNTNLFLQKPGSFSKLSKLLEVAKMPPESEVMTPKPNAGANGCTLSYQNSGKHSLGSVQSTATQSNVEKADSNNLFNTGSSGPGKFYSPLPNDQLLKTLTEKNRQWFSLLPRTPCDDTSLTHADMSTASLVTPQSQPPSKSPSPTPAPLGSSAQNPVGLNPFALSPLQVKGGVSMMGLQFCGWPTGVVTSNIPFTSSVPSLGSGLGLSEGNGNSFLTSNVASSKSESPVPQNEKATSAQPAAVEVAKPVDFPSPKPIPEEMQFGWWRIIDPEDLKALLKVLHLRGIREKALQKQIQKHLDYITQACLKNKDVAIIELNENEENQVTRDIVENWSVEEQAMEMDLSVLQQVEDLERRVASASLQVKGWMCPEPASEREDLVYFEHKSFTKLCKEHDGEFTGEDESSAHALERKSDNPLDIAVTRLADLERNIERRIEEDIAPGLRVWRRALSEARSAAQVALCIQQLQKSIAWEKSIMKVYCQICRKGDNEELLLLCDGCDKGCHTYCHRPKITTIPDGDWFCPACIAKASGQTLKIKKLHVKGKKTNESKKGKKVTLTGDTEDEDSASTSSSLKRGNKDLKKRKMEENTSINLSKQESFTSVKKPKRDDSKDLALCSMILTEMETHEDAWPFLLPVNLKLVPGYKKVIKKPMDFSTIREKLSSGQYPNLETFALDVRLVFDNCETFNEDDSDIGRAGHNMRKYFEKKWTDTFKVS
Experiment: qHTS Assay for Inhibitors of BAZ2B; note: nearly all actives have a fitted effect of over 60% in size
Conditions: AlphaScreen BAZ2B-H3K14Ac peptide displacement; activity change, negative = inhibition: at 114 µM (top of the series)
Outline: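 Complex of BAZ2B and biotin-H3K14Ac (50 nM apiece) forms over 30 min at RT, then faces library compounds up to 110 uM for another 30 min; AlphaScreen beads added, 20 min dark incubation, luminescence read.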
% is set by controls: 0 for no effect and ±100 for the full control effect; potency is the fitted concentration of half-maximal effect; tags give direction and shape of the fitted curve.

| SMILES | activity change, negative = inhibition | Potency |
| --- | --- | --- |
| O=C(CSc1ccc(-c2ccncc2)nn1)c1ccccc1 | inactive: -1.67% |  |
| CSc1ccc(NC(=O)N2CC=C(n3c(=O)[nH]c4ccccc43)CC2)cc1 |  | inconclusive: 50.1 µM [inhibitor, partial curve] |
| COC(=O)N1CCN(c2ccc(OC)cc2)CC1 | inactive: 19.5% |  |
| Cc1ccc(C(=O)N2CCCC(CCC(=O)NCc3ccccc3F)C2)cn1 (stereo not drawn) |  | inconclusive: 1.12 µM [inhibitor, full curve, poor fit] |
| Cc1ccc(C)c(NC(=O)c2nc(S(C)(=O)=O)ncc2N(Cc2ccc(C(C)(C)C)cc2)Cc2ccco2)c1 |  | inconclusive: 63.1 µM [inhibitor, partial curve, poor fit] |
| O=C(c1cc2nc(-c3ccco3)cc(C(F)(F)F)n2n1)N1CCN(c2ccccn2)CC1 | inactive: 4.77% |  |
| Cc1c(Cl)c(C(=O)Nc2nc3ccccc3n2CCN2CCCCC2)nn1C |  | inconclusive: 89.1 µM [inhibitor, single point] |
| COc1ccc2nc(NC(=O)C3CC(=O)N(c4ccc5c(c4)OCCO5)C3)sc2c1 (stereo not drawn) | inactive: -11.3% |  |
| CCOc1ccc(C(=O)c2cn(CC(=O)Nc3ccc4c(c3)OCCO4)c3ccc(OC)cc3c2=O)cc1 | inactive: -13.3% |  |
| CCCCC[C@H](O)/C=C/[C@@H]1[C@@H](C/C=C\CCCC(=O)O)[C@H]2CO[C@@H]1C2 |  | inconclusive: 89.1 µM [inhibitor, partial curve] |
| COc1ccccc1NC(=O)c1sc2nc(C)c(C(=O)Nc3ccc(C)cc3C)c(-c3ccc(Br)cc3)c2c1N | inactive: 2.67% |  |
| Cc1cccc(C2c3[nH]c4ccccc4c3CCN2C(=O)c2ccc(=O)[nH]c2)n1 (stereo not drawn) |  | inconclusive: 56.2 µM [inhibitor, partial curve] |
| COc1ccc(O)c(C(=O)/C=C/c2cc3ccccc3o2)c1 |  | active: 11.2 µM |
| Nc1ccc2nc(-c3cc(Cl)c(N)c(Cl)c3)[nH]c2c1 |  | inconclusive: 50.1 µM [inhibitor, partial curve] |
| COc1ccc(NC(=O)C(=O)NCCO)cc1Cl | inactive: 7.83% |  |
| O=c1[nH]c(CN2CCN(c3ccc([N+](=O)[O-])cc3)CC2)nc2ccsc12 |  | inconclusive: 89.1 µM [inhibitor, single point] |
| Cc1cccc(NC(=O)Cn2cc(C(=O)C3CCCCC3)c3ccccc32)c1C | inactive: -14.7% |  |
| COc1ccc(N2CCN(c3cc(C)c4ccc(C)cc4n3)CC2)cc1 | inactive: -38.5% |  |
| O=C1c2ccccc2NC(c2cccc([N+](=O)[O-])c2)N1CCc1ccccc1 (stereo not drawn) |  | inconclusive: 56.2 µM [inhibitor, partial curve] |
| O=C1C2CC=CCC2C(=O)N1Cc1ccccc1 (stereo not drawn) | inactive: 3.29% |  |
| N#CC1(NC(=O)COC(=O)c2nccnc2N)CCCCC1 |  | inconclusive: 89.1 µM [inhibitor, single point] |
| Cc1cc(C)c2oc(C(=O)Nc3ccc(S(=O)(=O)N(C)c4ccccc4)cc3)cc(=O)c2c1 |  | inconclusive: 44.7 µM [inhibitor, partial curve] |
| COc1cccc(/C=C2\SC(=S)N(C(C(=O)O)c3ccccc3)C2=O)c1OC (stereo not drawn) |  | inconclusive: 50.1 µM [inhibitor, partial curve] |

| SMILES | activity change, negative = inhibition | Potency |
| --- | --- | --- |
| O=C(O)c1nn(Cc2csc(-c3ccccc3)n2)c(=O)c2ccccc12 |  | inconclusive: 28.2 µM [inhibitor, single point] |
| Nc1[nH]nc2nc(NCc3ccccc3)c3c(c12)CCN(Cc1ccccc1)C3 |  | inconclusive: 39.8 µM [inhibitor, partial curve] |
| CCCc1nn2c(C)c(-c3ccccc3)nc2s1 | inactive: -1.31% |  |
| O=C(Nc1nc(-c2ccc(Br)cc2)ns1)c1ccccc1F | inactive: -5.72% |  |
| CN(C)c1ccc(C(C(=O)NCc2ccccc2)N(Cc2ccco2)C(=O)c2snc(C(N)=O)c2N)cc1 (stereo not drawn) |  | inconclusive: 39.8 µM [inhibitor, partial curve] |
| Cn1ncc(S(=O)(=O)Cc2ccccc2)c(Cl)c1=O |  | inconclusive: 89.1 µM [inhibitor, single point] |
| C(=N\Nc1nc2ccccc2s1)/c1ccco1 |  | inconclusive: 44.7 µM [inhibitor, partial curve] |
| CC(=O)c1nc(N2C(=O)CC(Cc3ccccc3)C2=O)sc1C (stereo not drawn) |  | inconclusive: 89.1 µM [inhibitor, single point] |
| O=C1CC(N2CCN(c3ccccc3Cl)CC2)C(=O)N1c1ccc(F)cc1 (stereo not drawn) | inactive: -2.94% |  |
| COc1ccc(C2c3cc(OC)c(OC)cc3CCN2C(=O)c2ccccc2)cc1OC (stereo not drawn) |  | inconclusive: 89.1 µM [inhibitor, single point] |
| COc1ccc(/C(C)=N/NC(=S)Nc2cc(C)ccc2C)cc1 |  | inconclusive: 25.1 µM [inhibitor, full curve] |
| COc1ccccc1CCNC(=O)Cn1c(=O)oc2ccccc21 |  | active: 79.4 µM |
| COCc1ccc(C(=O)N2CCCC(C(=O)c3cc(F)ccc3F)C2)s1 (stereo not drawn) |  | inconclusive: 3.55 µM [inhibitor, single point] |
| O=S(=O)(NCC1CCCO1)c1ccc(Cl)cc1 (stereo not drawn) |  | inconclusive: 89.1 µM [inhibitor, single point] |
| CCCn1c(SCC(=O)c2c(C)[nH]c(C)c2C(=O)OCC)nc2ccccc21 |  | inconclusive: 50.1 µM [inhibitor, partial curve] |
| O=C(NCc1ccccc1)C12CC3CC(CC(C3)C1)C2 |  | inconclusive: 12.6 µM [inhibitor, single point] |
| Cc1cccc(CN2CCc3c(OCC(=O)NCc4ccco4)cccc3C2=O)c1 |  | inconclusive: 79.4 µM [inhibitor, single point] |
| Cc1ccc(C)c(S(=O)(=O)Nc2ccc(S(=O)(=O)Nc3onc(C)c3C)cc2)c1 |  | inconclusive: 100 µM [inhibitor, single point] |
| Cc1ccc(C)c(N2CCN(C(=O)c3cc4c(=O)n(Cc5cccs5)ccc4nc3C)CC2)c1 | inactive: -31.3% |  |
| Oc1ccccc1N=Nc1nc(-c2ccccc2)c(-c2ccccc2)[nH]1 |  | active: 12.6 µM |
| c1ccc2c(Cn3ccnc3)cccc2c1 |  | inconclusive: 79.4 µM [inhibitor, single point] |
| CCOC(=O)C1=C(C)N(CCCC(=O)O)C(=O)NC1c1ccc(Cl)cc1 (stereo not drawn) | inactive: -18.5% |  |
| C[C@H](NS(=O)(=O)OCC(Cl)(Cl)Cl)C1CC1c1ccccc1 (stereo partly drawn) |  | inconclusive: 39.8 µM [inhibitor, full curve] |

| SMILES | activity change, negative = inhibition | Potency |
| --- | --- | --- |
| CC(C)c1ccc(/C=C2\SC(=S)N(CC(=O)NCCCN3CCOCC3)C2=O)cc1 |  | active: 31.6 µM |
| O=C(O)CCCN1C(=O)C(=O)/C(=C(/O)c2ccccc2)C1/C=C/c1ccccc1 (stereo not drawn) |  | inconclusive: 89.1 µM [inhibitor, single point] |
| Cc1nc(S(=O)(=O)N2CCN(C3c4ccccc4-c4ccccc43)CC2)cn1C |  | inconclusive: 70.8 µM [inhibitor, single point] |
| Cc1ccc(-c2ccc(CCC(=O)O)n2-c2ccc(C(C)C)cc2)cc1 |  | active: 39.8 µM |
| CCC(C)Nc1nc(-c2c[nH]c3ccccc23)cs1 (stereo not drawn) |  | active: 25.1 µM |
| Cc1ccc(NC(=O)/C(C#N)=C\c2ccc(Cl)cc2Cl)cc1C |  | inconclusive: 35.5 µM [inhibitor, full curve] |
| FC(F)(F)c1ccc(/C=N/n2c(COc3ccccc3)n[nH]c2=S)cc1 |  | inconclusive: 35.5 µM [inhibitor, full curve] |
| O=C(CSc1ccc2nnc(-c3cccs3)n2n1)N1CCCC1 |  | inconclusive: 89.1 µM [inhibitor, single point] |
| O=S(=O)(c1ccccc1C(F)(F)F)N1CCN(S(=O)(=O)c2ccccc2C(F)(F)F)CC1 |  | inconclusive: 3.98 µM [inhibitor, full curve, poor fit] |
| O=[N+]([O-])c1ccc(Nc2c3ccccc3nc3ccccc23)cc1 |  | inconclusive: 7.94 µM [inhibitor, full curve] |
| O=S(=O)(c1ccccc1)c1nc(-c2ccco2)oc1NCc1ccco1 |  | inconclusive: 31.6 µM [inhibitor, full curve] |
| Cc1cc(=O)oc2cc(NC(=S)NCc3ccccn3)ccc12 |  | inconclusive: 79.4 µM [inhibitor, single point] |
| Nn1cnnc1N/N=C/c1cc([N+](=O)[O-])c(Cl)cc1Cl |  | inconclusive: 89.1 µM [inhibitor, single point] |
| O=[N+]([O-])c1cccc(C(=S)N2CCN(c3ccccc3F)CC2)c1 |  | inconclusive: 14.1 µM [inhibitor, full curve] |
| CCOc1ccc(N2C(=O)CN(O)C=C3N=c4ccccc4=C32)cc1 |  | inconclusive: 50.1 µM [inhibitor, partial curve, poor fit] |
| CCOc1ccccc1N1CC(c2nc3ccccc3n2CCOc2ccc(C(C)(C)C)cc2)CC1=O (stereo not drawn) |  | inconclusive: 17.8 µM [inhibitor, full curve] |
| CCOc1ccccc1Nc1nc(-c2sc(NC(=O)c3ccc([N+](=O)[O-])cc3)nc2C)cs1 |  | inconclusive: 100 µM [inhibitor, partial curve] |
| Nc1ccc2nc(C3CCCCC3)[nH]c2c1 |  | active: 56.2 µM |
| CCOC(=O)c1[nH]c(=O)[nH]c1CN(Cc1ccco1)Cc1[nH]c(=O)[nH]c1C(=O)OCC |  | inconclusive: 79.4 µM [inhibitor, single point] |
| Cc1cc(/C=N/NC(=O)c2cc3ccccc3o2)c(C)n1C |  | inconclusive: 39.8 µM [inhibitor, partial curve] |
| CC1CCCN(C(C(=O)NC2CCCCC2)c2cc3c(cc2[N+](=O)[O-])OCO3)C1 (stereo not drawn) |  | inconclusive: 56.2 µM [inhibitor, partial curve] |
| COc1ccc2nc(NC(=O)C3CC(=O)N(c4ccccc4)C3)sc2c1 (stereo not drawn) |  | inconclusive: 89.1 µM [inhibitor, single point] |
